In patent publication US20250388696A1 (NAVIGO PROTEINS, published 2025):

What was measured:
hFAP-Fc [1] = molecular target: T1, hFAP-Fc (human, UniProt Q12884 26-760, limits assumed); test: ELISA on coated hFAP-Fc; KD 24 h against KD 0 h, mouse serum
T1 construct: also called Fc-tagged target (FAP)
T1 sequence (looked up): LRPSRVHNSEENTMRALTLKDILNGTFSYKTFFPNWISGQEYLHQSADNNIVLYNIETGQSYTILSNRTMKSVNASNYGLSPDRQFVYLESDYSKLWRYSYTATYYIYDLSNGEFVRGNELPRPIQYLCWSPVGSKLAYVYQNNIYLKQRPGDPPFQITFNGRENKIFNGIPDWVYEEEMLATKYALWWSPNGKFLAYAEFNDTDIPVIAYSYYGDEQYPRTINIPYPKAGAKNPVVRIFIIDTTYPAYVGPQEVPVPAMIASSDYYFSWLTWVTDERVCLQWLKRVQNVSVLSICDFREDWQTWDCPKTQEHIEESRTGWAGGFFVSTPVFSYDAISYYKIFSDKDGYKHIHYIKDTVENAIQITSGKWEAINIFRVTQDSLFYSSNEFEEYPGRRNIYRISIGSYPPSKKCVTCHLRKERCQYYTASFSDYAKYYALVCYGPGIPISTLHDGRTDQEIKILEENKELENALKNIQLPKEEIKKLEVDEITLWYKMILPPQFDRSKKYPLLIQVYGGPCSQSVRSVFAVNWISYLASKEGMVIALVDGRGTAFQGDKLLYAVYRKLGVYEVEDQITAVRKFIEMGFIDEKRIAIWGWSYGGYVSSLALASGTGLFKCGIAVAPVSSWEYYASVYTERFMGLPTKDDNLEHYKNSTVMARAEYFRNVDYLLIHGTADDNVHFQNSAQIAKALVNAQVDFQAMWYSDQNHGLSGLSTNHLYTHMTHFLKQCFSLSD
Protocol: (§1) High binding plates (Greiner, 781061) were immobilized with 2.5 μg/ml hFAP-Fc or 1.2 μg/ml Her2-Fc over night at 4° C. Dilution series of 3 μM to 0.07 pM of fusion proteins with binding specifically to Her2 were incubated in 100% human serum or 100% mouse serum for 24 h at 37° C. Dilution series of 3 µM to 0.2 pM or 1 μM to 0.01 fM of fusion proteins with binding specifically to hFAP were incubated in 100% human serum or 100% mouse serum for 24 h at 37° C. ELISA-plates were washed three times with PBST (PBS+0.1% Tween) and blocked with 3% BSA/0.5% Tween/PBS up to 2 h at room temperature (rt). After preincubation for 0 h or 24 h in the presence of serum the dilution series were incubated on ELISA-plates for up to 1 h at rt. Wells were washed with PBST and incubated with biotinylated anti-ubiquitin-antibody (1:300) for up to 1 h at rt. The binding was visualized with Streptavidin-HRP (1:5.000).
(§2) The fusion proteins comprise the albumin binding domain (referred to as HED) and the targeting moiety.

hFAP-Fc [2] = molecular target: T1, hFAP-Fc; test: ELISA on coated hFAP-Fc; 0 h in human serum
Protocol: as §1, §2

[3] = molecular target: T2, human fibroblast activation protein (hFAP) expressed on the surface of HEK293-hFAP cells (human, UniProt Q12884 1-760); test: flow cytometry, dilution series on HEK293-hFAP cells
T2 construct: whole, on cells; FAP overexpressing HEK293 cell line
T2 sequence (looked up): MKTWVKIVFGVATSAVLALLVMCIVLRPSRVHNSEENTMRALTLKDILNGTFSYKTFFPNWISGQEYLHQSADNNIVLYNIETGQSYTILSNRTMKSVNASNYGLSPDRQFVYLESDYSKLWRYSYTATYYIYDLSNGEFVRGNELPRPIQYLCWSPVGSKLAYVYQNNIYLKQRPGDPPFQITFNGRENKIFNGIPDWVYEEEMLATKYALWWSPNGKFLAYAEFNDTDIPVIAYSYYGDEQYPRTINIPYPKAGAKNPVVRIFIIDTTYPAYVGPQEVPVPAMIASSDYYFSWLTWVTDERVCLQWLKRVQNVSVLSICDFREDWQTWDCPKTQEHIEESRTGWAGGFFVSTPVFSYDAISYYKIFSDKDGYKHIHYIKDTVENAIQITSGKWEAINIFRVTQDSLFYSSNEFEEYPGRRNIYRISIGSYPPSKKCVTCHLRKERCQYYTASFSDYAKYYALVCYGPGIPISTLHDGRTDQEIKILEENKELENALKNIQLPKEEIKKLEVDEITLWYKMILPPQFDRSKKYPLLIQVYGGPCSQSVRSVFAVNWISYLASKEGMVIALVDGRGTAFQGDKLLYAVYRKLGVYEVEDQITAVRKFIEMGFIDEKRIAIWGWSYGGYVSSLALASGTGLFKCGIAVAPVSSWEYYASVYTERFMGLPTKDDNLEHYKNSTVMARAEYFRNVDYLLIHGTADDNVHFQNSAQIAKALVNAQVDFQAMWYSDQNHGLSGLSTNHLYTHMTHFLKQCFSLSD

[4] = molecular target: T2, human fibroblast activation protein …; test: flow cytometry on HEK293-hFAP cells, fusion protein pre-incubated 0 h in mouse serum (control)
hFAP-Fc [5] = molecular target: T1, hFAP-Fc; test: ELISA on coated hFAP-Fc; 24 h in mouse serum at 37 C
Protocol: as §1, §2

hFAP-Fc [6] = molecular target: T1, hFAP-Fc; test: ELISA on coated hFAP-Fc; 24 h in human serum at 37 C
Protocol: as §1, §2

[7] = molecular target: T2, human fibroblast activation protein …; test: flow cytometry on HEK293-hFAP cells, fusion protein pre-incubated 24 h in mouse serum at 37 C
[8] = molecular target: T2, human fibroblast activation protein …; test: flow cytometry on HEK293-hFAP cells, 24 h in mouse serum
hFAP-Fc [9] = molecular target: T1, hFAP-Fc; test: ELISA on coated hFAP-Fc; KD 24 h against KD 0 h, human serum
Protocol: as §1, §2

hFAP-Fc [10] = molecular target: T1, hFAP-Fc; test: ELISA on coated hFAP-Fc; 0 h in mouse serum
Protocol: as §1, §2

[11] = molecular target: T2, human fibroblast activation protein …; test: flow cytometry on HEK293-hFAP cells, 0 h in mouse serum

B1: fusion protein 218702 (designed binder)
chain: MQIFVKTLTPEWHIIGKTITLEVEPSDTIENVKAKIQDKEGIPPDQQNLAWAGKQLEDGRTLSDYNIQGGSMLMLKLHLRAAGGGGSGGGGSMQIFVKTLTPEWHIIGKTITLEVEPSDTIENVKAKIQDKEGIPPDQQNLAWAGKQLEDGRTLSDYNIQGGSMLMLKLHLRAAGGGGSGGGGSLAEAKVLALKELDKYGISNYYKNLINNAKTVEGVKALKEAIVAAGGGGSGGGGSLAEAKVLALKELDKYGISNYYKNLINNAKTVEGVKALKEAIVAA
- increase of KD vs target [fold] (hFAP-Fc [1]): 1.18 fold
- Kd (hFAP-Fc [2]): 1.05 nM
- Kd [3]: 0.28 nM
- Kd [4]: 0.19 nM
- Kd (hFAP-Fc [5]): 0.13 nM
- Kd (hFAP-Fc [6]): 1 nM
- Kd [7]: 0.27 nM
- EC50 (read off the curve) [8]: ~0.3 nM
- increase of KD vs target [fold] (hFAP-Fc [9]): 0.95 fold
- Kd (hFAP-Fc [10]): 0.11 nM
- EC50 (read off the curve) [11]: ~0.2 nM
